# Values joined by “and” are separate entries in the source; they are usually repeats but may differ in a detail not shown here. Identical values can stand only once. This list was built around the results that the source calls inconclusive (neither active nor inactive); the mix of calls is not that of the screen. Where the call is inconclusive, the potency comes from a doubtful curve fit. Active and inactive are the calls of the source. Calls come from the whole dose curve; as a rule, active = well fitted cell-killing curve with a large enough effect in the repeat runs; inconclusive = weak or mixed curves, or effect the other way; inactive = flat fitted curve, though single readings scatter.
# Assay: qHTS assay to identify small molecule agonists of the estrogen receptor beta (ER-beta) signaling pathway - cell viability counter screen (AID 1259380); note: nearly all actives have a fitted effect of over 30% in size
# Conditions: ER-beta-bla HEK293T viability, CellTiter-Glo luminescence, 16 h; series mostly up to 92.4 µM; activity change, negative = cytotoxicity: at the top concentration
# Excerpt: National Center for Advancing Translational Sciences [NCATS]
# NIH Chemical Genomics Center [NCGC]
# U.S. Environmental Protection Agency [EPA]
# National Institutes of Environmental Health Sciences [NIEHS]
# National Toxicology Program [NTP]
# U.S. Food and Drug Administration [FDA]
# Estrogen receptor (ER), a nuclear hormone receptor, plays an important role in development, metabolic homeostasis and reproduction. Two subtypes of ER, ER-alpha and ER-beta, have similar expression patterns with some uniqueness in both types. Endocrine disrupting chemicals (EDCs) and their interactions with steroid hormone receptors like ER causes disruption of normal endocrine function. To identify the compounds that activate ER signaling, an ER beta-UAS-bla GripTite cell line (Life Technologies, Madison, WI, USA) containing a beta-lactamase reporter gene under the control of an UAS response element was used to screen Tox21 10K compound library. The cytotoxicity of the Tox21 compound library against the ER-beta-bla cell line was tested in parallel by measuring the cell viability using CellTiter-Glo assay in the same wells.
# Tox21 Assay Protocol Summary:
# ER-beta-UAS-bla HEK293T cells were dispensed at 2,000 cells/5 uL of assay medium containing 2% charcoal stripped FBS per well into black wall/clear-bottom 1536-well plates using a Multidrop Combi (ThermoFisher Scientific, Waltham, MA) dispenser. After the assay plates were incubated at a 37C and 5% CO2 for 6 hr, 23 nL of compounds dissolved in DMSO, positive controls or DMSO only was transferred to the assay plate by a Pintool station (Kalypsys, San Diego, CA). The plates were incubated at 37C and 5% CO2 for 16 hr. Then 1 uL of LiveBLAzerTM B/G FRET substrate was added using a BioRAPTR FRD (Flying Reagent Dispenser, Aurora Discovery, San Diego, CA) and then the plates were incubated at room temperature for 2 hours, and fluorescence intensity was measured by an Envision plate reader (PerkinElmer, Shelton, CT). For cell viability readout that measures cytotoxicity, 4 uL/well of CellTiter-Glo reagent was added into the assay plates using a FRD. After 30 min incubation at room temperature, the luminescence intensity in the plates was measured using a ViewLux (PerkinElmer) plate reader.
# % is set by controls: 0 for no effect and ±100 for the full control effect; potency is the fitted concentration of half-maximal effect; tags give direction and shape of the fitted curve.
Structure (SMILES),Potency,"activity change, negative = cytotoxicity"
O=C(Nc1ccc2[nH]ccc2c1)c1cc2cc(F)ccc2n1Cc1cccc(F)c1,"inconclusive: 77 µM [cytotoxic, single point]",–
O=S1OCC2C(CO1)C1(Cl)C(Cl)=C(Cl)C2(Cl)C1(Cl)Cl (stereo not given),active: 48.5 µM,–
C[C@]12C=CC3=C4CCC(=O)C=C4CC[C@H]3[C@@H]1CC[C@@H]2O,"inconclusive: 30.4 µM [cytotoxic, partial curve] and inconclusive: 8.19 µM [cytotoxic, full curve]",–
C[C@]12Cc3cn[nH]c3C[C@@H]1CC[C@@H]1[C@@H]2CC[C@@]2(C)[C@H]1CC[C@]2(C)O,active: 8.41 µM,–
CCN(CC)C(=S)S,"inconclusive: 27.5 µM [cytotoxic, single point]",–
O=C(O)C1C2CCC(O2)C1C(=O)O (stereo not given),inactive,–
CC(C)(c1ccccc1)c1ccc(O)c(C(C)(C)c2ccccc2)c1,active: 21.5 µM and active: 30.6 µM,–
CCO/N=C(\CC)C1=C(O)CC(c2c(C)cc(C)cc2C)CC1=O (stereo not given),"inconclusive: 0.0969 µM [rising, full curve, poor fit]",–
O=C1c2ccccc2C(=O)C1C(=O)C(c1ccccc1)c1ccc(Cl)cc1 (stereo not given),active: 24.3 µM,–
CCCCCCCC[N+](C)(CCCCCCCC)CCCCCCCC,active: 12.2 µM and active: 27.3 µM and active: 30.6 µM,–
O=C/C(Cl)=C(/Cl)C(=O)O,"inconclusive: 76.9 µM [cytotoxic, partial curve, poor fit] and inconclusive: 77 µM [cytotoxic, single point]",–
c1cc2c(c(N3CCNCC3)c1)OCCO2,–,inactive: 0.994% [at 42.5 µM]
CCCN(CCC)c1c([N+](=O)[O-])cc(S(N)(=O)=O)cc1[N+](=O)[O-],active: 23.1 µM,–
COP(=O)(OC)OC(Br)C(Cl)(Cl)Br (stereo not given),"inactive and inconclusive: 27.3 µM [cytotoxic, single point]",–
Oc1ccc(C2(c3ccc(O)cc3)c3ccccc3-c3ccccc32)cc1,active: 48.6 µM,–
Brc1ccc(Oc2cc(Br)c(Br)cc2Br)c(Br)c1,"inconclusive: 54.9 µM [cytotoxic, partial curve]",–
CCCCOCN(C(=O)CCl)c1c(CC)cccc1CC,"inconclusive: 77 µM [cytotoxic, single point]",–
CC(C)N1C(=O)N(c2ccccc2)CSC1=NC(C)(C)C,active: 54.5 µM,–
O=C(O)C(F)(F)C(F)(F)C(F)(F)C(F)(F)C(F)(F)C(F)(F)C(F)(F)F,active: 30.6 µM and active: 24.3 µM,–
Cc1ccc(N)c(N)c1,"inconclusive: 15.4 µM [cytotoxic, single point]",–

Structure (SMILES),Potency,"activity change, negative = cytotoxicity"
O=C(NC(=O)c1c(F)cccc1F)Nc1cc(Cl)c(OC(F)(F)C(F)F)c(Cl)c1,"inconclusive: 68.6 µM [cytotoxic, single point]",–
COP(=O)(OC)O/C(=C\Cl)c1cc(Cl)c(Cl)cc1Cl,"inconclusive: 19.3 µM [cytotoxic, full curve]",–
CCC(C)c1cc([N+](=O)[O-])cc([N+](=O)[O-])c1O (stereo not given),"inconclusive: 13.7 µM [cytotoxic, full curve]",–
O=S1(=O)OC(c2cc(Br)c(O)c(Br)c2)(c2cc(Br)c(O)c(Br)c2)c2ccccc21,active: 31.5 µM,–
CO/N=C(\C(=O)OC)c1ccccc1CO/N=C(\C)c1cccc(C(F)(F)F)c1,"inconclusive: 3.86 µM [cytotoxic, full curve]",–
CNC(=O)Oc1ccccc1C1OCCO1,–,inactive: 1.99%
O=C(O)c1cc(Oc2ccc(C(F)(F)F)cc2Cl)ccc1[N+](=O)[O-],"inconclusive: 77.4 µM [cytotoxic, partial curve] and inconclusive: 76.9 µM [cytotoxic, single point]",–
CS(=O)(=O)c1ccc(C(=O)C2C(=O)CCCC2=O)c([N+](=O)[O-])c1,"inconclusive: 62.2 µM [cytotoxic, partial curve]",–
O=C1c2ccccc2C(=O)N1SC(Cl)(Cl)Cl,"inconclusive: 3.39 µM [cytotoxic, full curve] and inconclusive: 3.86 µM [cytotoxic, full curve]",–
COc1ccc(/C(=C/C(=O)N2CCOCC2)c2ccc(Cl)cc2)cc1OC,active: 68.6 µM,–
CC(C)Oc1cccc(NC(=O)c2ccccc2C(F)(F)F)c1,active: 17.2 µM,–
ClC1=C(Cl)C2(Cl)C3C(Cl)C=CC3C1(Cl)C2(Cl)Cl (stereo not given),"inconclusive: 68.6 µM [cytotoxic, single point]",–
c1ccc2c(c1)-c1cccc3cccc-2c13,"inconclusive: 21.7 µM [cytotoxic, full curve]",–
Nc1nc(N)nc(NC2CC2)n1,"inconclusive: 27.3 µM [cytotoxic, single point]",–
CCCCCCCCCCCCCC[P+](CCCCCC)(CCCCCC)CCCCCC,"inconclusive: 0.172 µM [cytotoxic, full curve]",–
O=C(O)COc1nc(Cl)c(Cl)cc1Cl,"inconclusive: 35.2 µM [cytotoxic, partial curve]",–
O=NN1CCCCC1,–,inactive: -8.76%
O=C(N[C@H]1N=C(c2ccccc2F)c2cccc3c2N(CC3)C1=O)c1cc2ccccc2[nH]1,"inconclusive: 13.3 µM [cytotoxic, partial curve, poor fit]",–
CC[C@H](C)[C@H]1O[C@]2(C=C[C@@H]1C)C[C@@H]1C[C@@H](C/C=C(\C)[C@@H](O[C@H]3C[C@H](OC)[C@@H](O[C@H]4C[C@H](OC)[C@@H](O)[C@H](C)O4)[C@H](C)O3)[C@@H](C)/C=C/C=C3\CO[C@@H]4[C@H](O)C(C)=C[C@@H](C(=O)O1)[C@]34O)O2,active: 18.1 µM,–
C[CH2][Hg][S]c1ccccc1C(=O)O,active: 2.17 µM and active: 5.31 µM,–
